Data published in article PMC11014668.
These are yes or no findings as the source states them, for the method shown. Binding seen in cells or lysates may run through a third protein. Some binding calls cover weakened binding; strength is not graded here. For part of these data: Tags and fused reporters may be left off the sequences shown.

Protein sequences, listed by entry. Tags and fused reporters are not part of them.
UniProt P40337: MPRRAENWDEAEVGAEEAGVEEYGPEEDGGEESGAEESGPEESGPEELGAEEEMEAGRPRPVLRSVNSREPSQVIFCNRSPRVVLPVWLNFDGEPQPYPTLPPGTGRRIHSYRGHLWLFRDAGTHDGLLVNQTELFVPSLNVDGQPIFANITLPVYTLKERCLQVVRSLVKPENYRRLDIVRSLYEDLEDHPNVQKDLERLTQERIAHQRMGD

Assays:
[1] = biological target: endogenous VHL (human (endogenous in HKC; cell line of Figure 1F-H not named)) (UniProt P40337); test: co-IP; endogenous VHL immunoprecipitation from HKC cells
[2] = biological target: endogenous VHL (human (endogenous in HKC; cell line of Figure 1F-H not named)) (UniProt P40337); test: co-IP; endogenous immunoprecipitation with antibodies to VHL, METTL3 or METTL14; cell line not named; EBC buffer, Protein G beads
IVT Flag-VHL = IVT Flag-VHL (UniProt P40337); test: pull-down; anti-Flag immunoprecipitation of IVT Flag-VHL with GST-tagged proteins expressed in vitro; EBC buffer, overnight at 4°C, in the presence of RNase

B1: endogenous METTL14 (protein, UniProt Q9HCE5 1-456)
chain: MDSRLQEIRERQKLRRQLLAQQLGAESADSIGAVLNSKDEQREIAETRETCRASYDTSAPNAKRKYLDEGETDEDKMEEYKDELEMQQDEENLPYEEEIYKDSSTFLKGTQSLNPHNDYCQHFVDTGHRPQNFIRDVGLADRFEEYPKLRELIRLKDELIAKSNTPPMYLQADIEAFDIRELTPKFDVILLEPPLEEYYRETGITANEKCWTWDDIMKLEIDEIAAPRSFIFLWCGSGEGLDLGRVCLRKWGYRRCEDICWIKTNKNNPGKTKTLDPKAVFQRTKEHCLMGIKGTVKRSTDGDFIHANVDIDLIITEEPEIGNIEKPVEIFHIIEHFCLGRRRLHLFGRDSTIRPGWLTVGPTLTNSNYNAETYASYFSAPNSYLTGCTEEIERLRPKSPPPKSKSDRGGGAPRGGGRGGTSAGRGRERNRSNFRGERGGFRGGRGGAHRGGFPPR
Question: Which results are given for B1?
Answer: binding [1]: binds; binding [2]: binds

B2: METTL14-GST (protein, UniProt Q9HCE5 1-456)
chain: B1 chain
Question: For B2, which binding (IVT Flag-VHL) is on record?
Answer: Its binding is “binds”.
